# Source: PubChem BioAssay AID485294 (National Center for Advancing Translational Sciences (NCATS), 2010)
# Screen size: about 370,000 compounds; about 150 (0.041%) were called active. The inconclusive results got no clear call from the source; some entries with a clear call stand among them for comparison. Calls come from the whole dose curve; as a rule, active = well fitted inhibition curve with a large enough effect; inconclusive = small, poorly fitted or top-dose-only effect; inactive = flat fitted curve, though single readings scatter. Potencies of inconclusive entries are left out as doubtful fits.
# Molecular target: Beta-lactamase (Escherichia coli (strain K12)) (UniProt P00811)
# UniProt P00811, sequence (P00811 whole entry, looked up): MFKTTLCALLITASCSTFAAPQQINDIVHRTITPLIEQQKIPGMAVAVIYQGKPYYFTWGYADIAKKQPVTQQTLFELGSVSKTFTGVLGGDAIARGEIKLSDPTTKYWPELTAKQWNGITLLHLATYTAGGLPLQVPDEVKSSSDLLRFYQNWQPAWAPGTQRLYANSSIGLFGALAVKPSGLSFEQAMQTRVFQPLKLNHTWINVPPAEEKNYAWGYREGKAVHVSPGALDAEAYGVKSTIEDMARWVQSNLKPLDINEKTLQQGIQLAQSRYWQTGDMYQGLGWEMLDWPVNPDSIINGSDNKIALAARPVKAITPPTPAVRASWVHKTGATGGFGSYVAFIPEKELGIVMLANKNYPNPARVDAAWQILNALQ
# Experiment: qHTS Inhibitors of AmpC Beta-Lactamase (assay with detergent); note: nearly all actives have a fitted effect of over 25% in size
# Conditions: AmpC hydrolysis of nitrocefin, absorbance 480 nm, 0.01% Triton; series mostly up to 114 µM
# Method in brief: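 AmpC (5.3 nM in the dispensed reagent) in 20 mM phosphate pH 7.0 with 0.01% (detergent screen) or 0.0001% Triton X-100 was preincubated with compounds for 15 min at room temperature. Nitrocefin was then added from an 800 uM solution, and hydrolysis was followed at 480 nm.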
# Potency is the fitted concentration of half-maximal effect; tags give direction and shape of the fitted curve.
row,Structure (SMILES),Potency
1,Cc1cc(C)c(NC(=O)CSc2nc3ccc(NC(=O)CSc4nnnn4-c4ccccc4)cc3s2)c(C)c1,"inconclusive [inhibitor, partial curve, poor fit]"
2,CCc1ccc(NC(=O)c2cc(C(C)=O)n3ccccc23)cc1,inactive
3,COCCN1C(=O)N(c2cccc(OC)c2)C(=O)C1CC(=O)Nc1cccc(F)c1 (centres undefined),"inconclusive [inhibitor, partial curve, poor fit]"
4,Cc1sc(NC(=O)CSc2nnc(-c3ccc(F)cc3)o2)c(C#N)c1C,"inconclusive [inhibitor, full curve, poor fit]"
5,CC1CCCN(C(=O)CN2C(=O)NC3(CCCCC3C)C2=O)C1 (centres undefined),"inconclusive [inhibitor, full curve, poor fit]"
6,COc1cc(OC)cc(C(=O)NCCC(=O)NCCc2ccc(OC)c(OC)c2)c1,"inconclusive [inhibitor, full curve]"
7,CC(C)(C)NS(=O)(=O)c1ccc(CCC(=O)Nc2ccc3c(c2)OCCO3)cc1,"inconclusive [inhibitor, full curve, poor fit]"
8,CCOc1ccc(CCNC(=O)CCc2c(C)nc3c4c(C)cc(C)nc4nn3c2C)cc1,inactive
9,CC(=O)c1cc(O)c2ccccc2c1O,inactive
10,COC(=O)c1cccc(NC(=O)/C=C/c2ccc3c(c2)OCO3)c1,"inconclusive [inhibitor, single point]"
11,COc1ccccc1C1C=C(c2ccc(F)cc2)Nc2nc(-c3ccc(Cl)cc3)nn21 (centres undefined),inactive
12,Oc1cc2c(cc1CN1CCN(c3cccc(C(F)(F)F)c3)CC1)CCC2,"inconclusive [inhibitor, full curve, poor fit]"
13,Cc1ccccc1OCC(=O)Nc1ccncc1,inactive
14,COCc1nnc(NS(=O)(=O)c2ccc(Cl)cc2)s1,"inconclusive [inhibitor, full curve, poor fit]"
15,COC(=O)c1ccc(COc2ccccc2/C=N/Nc2cccc(C(=O)O)c2)cc1,"inconclusive [inhibitor, full curve, poor fit]"
16,O=c1c2cnn(-c3ccccc3)c2ncn1Cc1cccc(Cl)c1,"inconclusive [inhibitor, full curve, poor fit]"
17,CCn1ncc(C2=NOC(C(=O)Nc3cccc(C(C)=O)c3)C2)c1C (centres undefined),"inconclusive [inhibitor, single point]"
18,Cc1ccc(C)c(CSc2nnc(-c3cccnc3)o2)c1,"inconclusive [inhibitor, partial curve, poor fit]"
19,O=[N+]([O-])c1cccc(/C=N\N2CCN(c3ccc(Cl)cc3)CC2)c1,inactive
20,O=C(Cc1c[nH]c2ccccc12)N1CCc2ccccc21,"inconclusive [inhibitor, partial curve]"
21,C/C(=N\NC(=S)NC(C)C)c1ccc(C(C)(C)C)cc1,"inconclusive [inhibitor, full curve, poor fit]"
22,Cc1ccccc1NC(=O)COc1nsnc1N1CCOCC1,"inconclusive [inhibitor, full curve, poor fit]"

row,Structure (SMILES),Potency
1,CC1C=CCC2C(=O)N(c3ccc(Cl)cc3O)C(=O)C12 (centres undefined),"inconclusive [inhibitor, partial curve]"
2,CCc1noc(C)c1C(=O)N1CCCSC1=Nc1ccccc1OC,"inconclusive [inhibitor, full curve, poor fit]"
3,CCOC(=O)C(C)n1cnc2sc3c(c2c1=O)CCC3 (centres undefined),"inconclusive [inhibitor, partial curve, poor fit]"
4,COc1ccccc1-c1cn[nH]c1-c1ccc(OCc2ccc([N+](=O)[O-])cc2)cc1O,"inconclusive [inhibitor, full curve]"
5,Nn1c(SCc2ccccc2)nc2c(cnn2-c2ccccc2)c1=O,inactive
6,Cc1cc2nn(-c3ccc(F)cc3)nc2cc1NC(=O)c1cc(Cl)ccc1Cl,inactive
7,COc1cc(C(=O)Sc2ccc(C)cc2)cc(OC)c1OC,inactive
8,CCCN(CCC)c1nn2c(=O)c(C(=O)NCc3cccc(OC)c3)cnc2s1,inactive
9,CCN(CC)c1nc2ccccc2nc1C(C#N)C(=O)NCCCOC (centres undefined),inactive
10,COc1ccc(N2CCN(C(CNC(=O)C(=O)NCc3ccc(F)cc3)c3cccnc3)CC2)cc1 (centres undefined),inactive
11,COc1cc(/C=C2/CCCC(C(=O)C(F)(F)F)=C2O)ccc1O,inactive
12,O=C(NCc1ccccc1)C(=O)NCC(c1ccco1)S(=O)(=O)c1ccccc1 (centres undefined),inactive
13,COc1ccc(CC(=O)Nc2ccc(-c3nc4ccccc4s3)cc2Cl)cc1,inactive
14,CCC(C(=O)OCC(=O)Nc1ccc(C)c(S(=O)(=O)N2CCOCC2)c1)c1ccccc1 (centres undefined),"inconclusive [inhibitor, partial curve, poor fit]"
15,CCc1cc(C(=O)N(C)CC(=O)N(CC(C)C)c2c(N)n(CC(C)C)c(=O)[nH]c2=O)sc1C,"inconclusive [inhibitor, full curve, poor fit]"
16,Cc1ccc(CSc2nnc(SCC(=O)N/N=C/c3ccccc3OCC(=O)O)s2)cc1,inactive
17,COc1ccc(CN2CCNC(=O)C2CC(=O)NCCc2c[nH]c3ccccc23)c(OC)c1 (centres undefined),"inconclusive [inhibitor, single point]"
18,COc1ccc(-c2nnc3ccc(SCC(=O)N4CCCC4)nn23)cc1,"inconclusive [inhibitor, partial curve, poor fit]"
19,CN(CC(=O)Nc1ccc2c(c1)OCCO2)Cc1nc2ccccc2c(=O)[nH]1,"inconclusive [inhibitor, full curve, poor fit]"
20,CCc1nc(C)cn1S(=O)(=O)c1cc(C)c(OC)cc1C,"inconclusive [inhibitor, full curve, poor fit]"
21,CC(C)N(Cc1ccccc1)C(=O)COC(=O)c1ccc2ncsc2c1,"inconclusive [inhibitor, full curve, poor fit]"
22,CCN(CC)S(=O)(=O)c1cccc(C(=O)Nc2nncs2)c1,"inconclusive [inhibitor, full curve, poor fit]"
